The record followed here is the supplement of paper PMC9446081.

About 220 (0.56%) of roughly 39,000 compounds showed activity. Some of the results follow.
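Further: static incubation at 37 °C against the wild-type strain, values averaged over two biological replicates.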

For the test, the system named is Escherichia coli K-12 BW25113. In words: relative growth (OD600 normalised to plate interquartile mean) (fraction); higher = less growth inhibition, active = 0.2 or less. The following applies: 50 µM; LB; incubation time: overnight (16-24 h).
As to `COc1cc(N2CCO[C@]3(COCCN(S(C)(=O)=O)C3)C2)ncn1`, the relative growth is inactive: 0.997.

For the compound `O=C1OCC=C[C@H]2O[C@@]34C=CCN(c5ccc(Cl)cc5)C(=O)[C@H]3N(CCCCCCO)C(=O)[C@@H]4[C@@H]12`, the relative growth is inactive: 0.983.

As for `O=C(C[C@@H]1CC[C@H]2[C@@H](COC[C@H](O)CN2S(=O)(=O)c2ccccc2)O1)N[C@H]1CCN(Cc2ccccc2)C1`, the relative growth is inactive: 0.999. Take `O=C(C[C@@H]1CC[C@H]2[C@@H](COC[C@@H](O)CN2C(=O)c2ccc3c(c2)OCO3)O1)NC1Cc2ccccc2C1`: the relative growth was inactive: 1.01. With `C[C@@H]1CN([C@H](C)CO)S(=O)(=O)c2ccc(C#C[C@@H](C)O)cc2O[C@@H]1CN(C)C(=O)C1CCCCC1`, the relative growth is inactive: 0.953. Regarding `O=C(O)c1oc2ccccc2c1CSc1ccc(Cl)cc1`, the relative growth is inactive: 0.972. As for `C[C@@H]1CN([C@@H](C)CO)S(=O)(=O)c2ccc(C3=CCCC3)cc2O[C@H]1CN(C)S(=O)(=O)c1ccc(F)cc1`, the relative growth is inactive: 1. Turning to `C[C@@H]1CN([C@@H](C)CO)C(=O)Cc2cc(NC(=O)Cc3cn(C)c4ccccc34)ccc2O[C@@H]1CN(C)C(=O)Nc1cccc2ccccc12`, the relative growth was inactive: 1. Regarding `Cc1ccccc1S(=O)(=O)N1C[C@H](O)COC[C@H]2O[C@H](CC(=O)NCCc3ccccc3)CC[C@@H]21`, the relative growth was inactive: 0.956. Turning to `C[C@H]1CN([C@@H](C)CO)C(=O)Cc2cc(NC(=O)Nc3ccc4c(c3)OCO4)ccc2O[C@H]1CN(C)Cc1ccc(-c2ccccc2)cc1`, the relative growth is inactive: 1.01. Consider `O=C(C[C@@H]1CC[C@H]2[C@@H](COC[C@@H](O)CN2C(=O)Nc2cccc(F)c2)O1)NCc1ccccc1Cl`, for which the relative growth is inactive: 1. To `C[C@@H]1CCCCO[C@@H](CN(C)Cc2ccc(C(=O)O)cc2)[C@H](C)CN([C@@H](C)CO)C(=O)c2cc(NC(=O)Cc3ccccc3)ccc2O1` belongs inactive: 0.993; to `CC(=O)O[C@H]1[C@H](O)[C@H](O)[C@H](O[C@@H]2[C@@H](Oc3cc(O)c4c(=O)cc(-c5ccc(O)c(O)c5)oc4c3)O[C@@H](C(=O)O)[C@H](O)[C@@H]2O)O[C@@H]1C`, inactive: 0.986. With `C[C@@H]1CCCCO[C@@H](CN(C)C(=O)Nc2ccccc2)[C@@H](C)CN([C@@H](C)CO)C(=O)c2cc(NC(=O)C3CCCCC3)ccc2O1`, the relative growth is inactive: 1.

With `C[C@H]1CN([C@@H](C)CO)C(=O)c2cc(NC(=O)Nc3ccc4c(c3)OCO4)ccc2O[C@@H]1CN(C)S(C)(=O)=O`, the relative growth was inactive: 1. In the case of `C[C@@H]1CCCCO[C@H](CN(C)Cc2ccc(C(F)(F)F)cc2)[C@H](C)CN([C@@H](C)CO)C(=O)c2cc(NS(=O)(=O)c3cn(C)cn3)ccc2O1`, the relative growth is inactive: 0.989.

As for `C[C@@H]1CN([C@H](C)CO)C(=O)c2cc(NC(=O)NC3CCCCC3)ccc2O[C@@H]1CN(C)Cc1ccc(C(=O)Nc2ccccc2N)cc1`, the relative growth is inactive: 0.975.

On to `C[C@@H]1CN([C@H](C)CO)C(=O)c2cc(NS(=O)(=O)c3ccc(F)cc3)ccc2O[C@@H]1CN(C)Cc1ccncc1`, for which the relative growth is inactive: 0.995.

`COc1ccc(S(=O)(=O)N(C)C[C@H]2OCCCC[C@H](C)Oc3ccc(NS(=O)(=O)c4cn(C)cn4)cc3C(=O)N([C@H](C)CO)C[C@@H]2C)cc1`: the relative growth is inactive: 0.998.

`C[C@@H]1CN([C@@H](C)CO)C(=O)c2cc(/C=C/c3ccccc3)cnc2O[C@H]1CN(C)C(=O)Nc1ccc(C(F)(F)F)cc1`: the relative growth is inactive: 0.974. As to `CCOC(=O)C1CCN(c2cn[nH]c(=O)n2)CC1`, the relative growth is inactive: 0.972.

Turning to `C[C@@H]1CN([C@@H](C)CO)S(=O)(=O)c2ccc(-c3ccc(C(=O)N(C)C)cc3)cc2O[C@H]1CN(C)C(=O)Cc1ccccn1`, the relative growth was inactive: 0.984. Take `C[C@@H]1CN([C@@H](C)CO)C(=O)c2cccc(NC(=O)CCCCCC(=O)Nc3ccccc3N)c2O[C@@H]1CN(C)Cc1ccccc1`: the relative growth is inactive: 0.99. Take `O=C1OCCC=C[C@H]2O[C@@]34C=CCN(c5ccc6ccccc6c5)C(=O)[C@H]3N(CCCCCCO)C(=O)[C@@H]4[C@@H]12`: the relative growth is inactive: 1.01.

Turning to `C[C@@H]1CN([C@@H](C)CO)C(=O)CCCn2cc(nn2)CO[C@H]1CN(C)C(=O)Nc1ccc(N2CCCCC2)cc1`, the relative growth is inactive: 0.986. As to `C[C@@H]1CCCCO[C@H](CN(C)Cc2ccc3c(c2)OCO3)[C@H](C)CN([C@@H](C)CO)C(=O)c2cc(NC(=O)CCC(F)(F)F)ccc2O1`, the relative growth is inactive: 0.995. For the compound `C[C@H]1CN([C@@H](C)CO)C(=O)c2cccc(NC(=O)C3CC3)c2O[C@H]1CN(C)S(=O)(=O)c1cccs1`, the relative growth was inactive: 0.994.

Consider `C[C@H]1CN([C@@H](C)CO)C(=O)c2cc(C#CCN(C)C)cnc2O[C@@H]1CN(C)S(=O)(=O)c1ccccc1`, for which the relative growth was inactive: 1.05.

In the case of `C(=N\c1nc2ccccc2[nH]1)/N(c1ccccc1)c1ccccc1`, the relative growth was inactive: 0.997. Consider `O=C(CN1CCOCC1)N[C@@H]1CC[C@@H](CCn2cc(C3CCCC3)nn2)O[C@H]1CO`, for which the relative growth was inactive: 0.983. On to `COc1cccc(NC(=O)N2C[C@@H](O)COC[C@@H]3O[C@@H](CC(=O)NC4Cc5ccccc5C4)CC[C@H]32)c1`, for which the relative growth is inactive: 0.969. Take `C[C@@H]1CCCCO[C@H](CN(C)S(=O)(=O)c2cn(C)cn2)[C@@H](C)CN([C@H](C)CO)C(=O)c2cc(NC(=O)CCCN(C)C)ccc2O1`: the relative growth was inactive: 0.981. With `Cc1ccc(S(=O)(=O)N(C)C[C@@H]2OCCCC[C@@H](C)Oc3ccc(NC(=O)Nc4cccc5ccccc45)cc3C(=O)N([C@H](C)CO)C[C@H]2C)cc1`, the relative growth is inactive: 1.03. Turning to `C[C@@H]1CN([C@@H](C)CO)C(=O)c2cc(NC(=O)Cc3ccccc3)ccc2O[C@@H](C)CCCCO[C@@H]1CN(C)C(=O)NC1CCCCC1`, the relative growth is inactive: 0.984. As for `COc1ccc(NC(=O)N(C)C[C@@H]2Oc3ccc(NC(=O)C4CC4)cc3C(=O)N([C@H](C)CO)C[C@@H]2C)cc1`, the relative growth was inactive: 1.01. On to `CN(C)C(=O)C[C@@H]1CC[C@@H](NC(=O)C2CCOCC2)[C@H](CO)O1`, for which the relative growth was inactive: 1. To `COc1ccc(S(=O)(=O)Nc2cccc3c2O[C@@H](CN(C)S(=O)(=O)c2cccs2)[C@@H](C)CN([C@@H](C)CO)C3=O)cc1` belongs inactive: 1.01; to `C[C@@H]1CN([C@@H](C)CO)C(=O)Cc2cc(NC(=O)Cc3ccccc3)ccc2O[C@@H]1CN(C)Cc1ccc(Cl)c(Cl)c1`, inactive: 0.988; to `CCS(=O)(=O)Nc1ccc2c(c1)C(=O)N(C)C[C@H](OC)[C@H](C)CN(Cc1nccs1)[C@H](C)CO2`, inactive: 0.971. To `O=C(O)CCC(=O)c1ccc(-c2ccccc2)cc1` belongs inactive: 1.03; to `C=CC1=C(C(=O)O)N2C(=O)C(NC(=O)C(=NO)c3csc(N)n3)C2SC1` (centres undefined), active: 0.05. `C[C@H](CO)N1C[C@H](C)[C@@H](CN(C)Cc2ccc(Cl)c(Cl)c2)Oc2ccc(NC(=O)Nc3ccc(C(F)(F)F)cc3)cc2CC1=O`: the relative growth is inactive: 1.02. Turning to `O=C(C[C@H]1CC[C@H](NC(=O)Cc2ccccn2)[C@@H](CO)O1)NCCCN1CCOCC1`, the relative growth is inactive: 1.01.

Consider `Cc1ccc(S(=O)(=O)Nc2ccc3c(c2)CC(=O)N([C@H](C)CO)C[C@H](C)[C@H](CN(C)Cc2ccncc2)O3)cc1`, for which the relative growth was inactive: 0.981.

With `Cc1ccc(S(=O)(=O)N(C)C[C@H]2Oc3ccc(NS(C)(=O)=O)cc3C(=O)N([C@H](C)CO)C[C@@H]2C)cc1`, the relative growth was inactive: 0.977.

`COc1ncccc1N`: the relative growth is inactive: 1.01. In the case of `C[C@@H]1COCS(=O)(=O)N1`, the relative growth is inactive: 0.949. For the compound `O=C(N[C@H]1CC=CC[C@H](CC(=O)N(CCO)Cc2ccccc2)C(=O)N[C@@H](Cc2c[nH]c3ccccc23)COC1=O)OCC1c2ccccc2-c2ccccc21`, the relative growth is inactive: 1.01. In the case of `C[C@@H]1CN([C@H](C)CO)C(=O)c2cc(NC(=O)c3ccncc3)ccc2O[C@@H](C)CCCCO[C@H]1CN(C)C(=O)Nc1ccc2c(c1)OCO2`, the relative growth was inactive: 1. With `C[C@H]1CN([C@@H](C)CO)C(=O)c2cccc(NC(=O)Nc3ccc(F)cc3)c2O[C@H]1CN(C)Cc1ccc(Cl)c(Cl)c1`, the relative growth is inactive: 0.998.

In the case of `CC1(C)CCC2(C)CCC3(C)C(=CCC4C5(C)CCC(OC(=O)c6ccccc6)C(C)(C)C5CCC43C)C2C1` (stereo not drawn) [beta-AMYRIN BENZOATE], the relative growth was inactive: 0.896. As to `Cc1noc(C)c1NC(=O)N(C)C[C@@H]1Oc2ccc(NS(C)(=O)=O)cc2CC(=O)N([C@@H](C)CO)C[C@@H]1C`, the relative growth was inactive: 0.883.

`C[C@@H]1CN([C@@H](C)CO)C(=O)c2cc(NC(=O)Cc3ccccc3)ccc2O[C@@H](C)CCCCO[C@@H]1CN(C)C(=O)C1CCCCC1`: the relative growth was inactive: 1.02. Turning to `C[C@@H]1CN([C@H](C)CO)C(=O)c2cc(NC(=O)Nc3ccccc3)ccc2O[C@H]1CN(C)C(=O)Nc1ccc(C(F)(F)F)cc1`, the relative growth is inactive: 0.993. On to `Cc1noc(C)c1NC(=O)N(C)C[C@@H]1OCCCC[C@H](C)Oc2ccc(NS(=O)(=O)c3ccc(F)cc3)cc2C(=O)N([C@H](C)CO)C[C@@H]1C`, for which the relative growth was inactive: 0.996. Take `C[C@@H]1CCCCO[C@@H](CN(C)CC2CC2)[C@H](C)CN([C@H](C)CO)C(=O)c2cc(NS(C)(=O)=O)ccc2O1`: the relative growth is inactive: 1.03. With `CN1C(=O)c2cc(NC(=O)c3cnccn3)ccc2OC[C@@H]2O[C@H](CC(=O)N[C@H]3CCN(Cc4ccccc4)C3)CC[C@H]21`, the relative growth was inactive: 0.978. As to `C[C@H](CO)N1C[C@H](C)[C@@H](CN(C)S(=O)(=O)c2cn(C)cn2)Oc2ccc(NS(=O)(=O)c3ccc(Cl)cc3)cc2CC1=O`, the relative growth is inactive: 1.

`C[C@@H]1CCCCO[C@@H](CN(C)Cc2ccc(C(F)(F)F)cc2)[C@H](C)CN([C@H](C)CO)C(=O)c2cc(NS(=O)(=O)c3ccc(F)cc3)ccc2O1`: the relative growth was inactive: 0.982.
